Laboratory results reported in a compilation of properties of binary mixtures (doi:10.1021/je034204h).
The densities may have been worked out from excess volumes.

Experiment: xn = mol fraction of the nth substance listed
Settings: 100 kPa

## CC1COC(=O)O1 (stereo unspecified) + C1COCCO1
303.15 K, x1 = 0.1007
  mass density: 1041.4 kg/m3
303.15 K, x1 = 0.2012
  mass density: 1059.2 kg/m3
303.15 K, x1 = 0.4017
  mass density: 1094.6 kg/m3
303.15 K, x1 = 0.5017
  mass density: 1112 kg/m3
303.15 K, x1 = 0.6015
  mass density: 1129 kg/m3
303.15 K, x1 = 0.7018
  mass density: 1145.7 kg/m3
303.15 K, x1 = 0.8014
  mass density: 1162.1 kg/m3
303.15 K, x1 = 0.9008
  mass density: 1178.4 kg/m3
303.15 K, x1 = 1
  mass density: 1194.5 kg/m3

## C1COCCO1 + CC1COC(=O)O1
303.15 K, x2 = 0
  mass density: 1023.3 kg/m3

## CC(C)=O + CC1COC(=O)O1
303.15 K, x2 = 0
  mass density: 782.4 kg/m3

## Cc1ccccc1 + CC1COC(=O)O1
303.15 K, x2 = 0
  mass density: 860.4 kg/m3

## Cc1ccccc1C + CC1COC(=O)O1
303.15 K, x2 = 0.1383
  mass density: 895.4 kg/m3
303.15 K, x2 = 0.2653
  mass density: 930.2 kg/m3
303.15 K, x2 = 0.3824
  mass density: 964.7 kg/m3
303.15 K, x2 = 0.4906
  mass density: 998.9 kg/m3
303.15 K, x2 = 0.5909
  mass density: 1032.8 kg/m3
303.15 K, x2 = 0.6842
  mass density: 1066.3 kg/m3
303.15 K, x2 = 0.7712
  mass density: 1099.4 kg/m3
303.15 K, x2 = 0.9286
  mass density: 1163.7 kg/m3

## ClC(Cl)Cl + CC1COC(=O)O1
298.15 K, x2 = 0
  mass density: 1460.9 kg/m3
298.15 K, x2 = 0.0961
  mass density: 1435.5 kg/m3
298.15 K, x2 = 0.1929
  mass density: 1410.5 kg/m3
298.15 K, x2 = 0.2906
  mass density: 1385.2 kg/m3
298.15 K, x2 = 0.3894
  mass density: 1359.6 kg/m3
298.15 K, x2 = 0.5894
  mass density: 1306.5 kg/m3
298.15 K, x2 = 0.6906
  mass density: 1278.4 kg/m3
298.15 K, x2 = 0.7925
  mass density: 1250.4 kg/m3
298.15 K, x2 = 0.8962
  mass density: 1222.2 kg/m3

## c1ccccc1 + CC1COC(=O)O1
303.15 K, x2 = 0
  mass density: 865.9 kg/m3

## CC1COC(=O)O1 (stereo unspecified) + CC(C)=O
303.15 K, x1 = 0.088
  mass density: 825.4 kg/m3
303.15 K, x1 = 0.1784
  mass density: 869 kg/m3
303.15 K, x1 = 0.2713
  mass density: 912.4 kg/m3
303.15 K, x1 = 0.3668
  mass density: 955.2 kg/m3
303.15 K, x1 = 0.4647
  mass density: 997.4 kg/m3
303.15 K, x1 = 0.5657
  mass density: 1038.1 kg/m3
303.15 K, x1 = 0.6697
  mass density: 1077.3 kg/m3
303.15 K, x1 = 0.7768
  mass density: 1116.5 kg/m3
303.15 K, x1 = 0.8864
  mass density: 1155.5 kg/m3
303.15 K, x1 = 1
  mass density: 1194.5 kg/m3

## CC1COC(=O)O1 (stereo unspecified) + Cc1ccccc1
303.15 K, x1 = 0.2385
  mass density: 928.2 kg/m3
303.15 K, x1 = 0.3493
  mass density: 962.1 kg/m3
303.15 K, x1 = 0.4553
  mass density: 996 kg/m3
303.15 K, x1 = 0.5561
  mass density: 1029.5 kg/m3
303.15 K, x1 = 0.8335
  mass density: 1128.5 kg/m3
303.15 K, x1 = 0.9188
  mass density: 1161.6 kg/m3
303.15 K, x1 = 1
  mass density: 1194.5 kg/m3

## CC1COC(=O)O1 (stereo unspecified) + Cc1ccccc1C
303.15 K, x1 = 1
  mass density: 1194.5 kg/m3

## CC1COC(=O)O1 (stereo unspecified) + ClC(Cl)Cl
298.15 K, x1 = 1
  mass density: 1194.5 kg/m3

## CC1COC(=O)O1 (stereo unspecified) + c1ccccc1
303.15 K, x1 = 0.2087
  mass density: 935.9 kg/m3
303.15 K, x1 = 0.4131
  mass density: 1004.4 kg/m3
303.15 K, x1 = 0.5136
  mass density: 1037.7 kg/m3
303.15 K, x1 = 0.6131
  mass density: 1070.1 kg/m3
303.15 K, x1 = 0.7109
  mass density: 1101.8 kg/m3
303.15 K, x1 = 0.8083
  mass density: 1133 kg/m3
303.15 K, x1 = 1
  mass density: 1194.5 kg/m3
